This note sets out measurements from patent US4520022A, “Substituted vinyl cephalosporins” (priority 1983, dated 1985).

≈ marks a conversion by molar mass, not a printed value. Read-outs that look alike come from different tables or passages of the source.

Test [1] has as its system Gn Ia: E. coli Juhl A15119, E. coli A9660, K. pneumoniae D11, P. mirabilis A9554, P. mirabilis A9900. The settings on record: for activity against the Gram- bacteria (Gn-Ia): in words.
Test [2] relates to bacteria. Briefly: Antibacterial activity, general statements. The settings on record: in words.
Setting [3] is: read-out: Minimum Inhibitory Concentration Gn Ia, Mueller-Hinton agar, run 1, average of five organisms.
Setting [4] is: read-out: Minimum Inhibitory Concentration Gn Ia, Mueller-Hinton agar, run 2, average of five organisms.
[5] abbreviates: read-out: Minimum inhibitory Concentration Gn Ia, Test Medium Comparison, A: Mueller-Hinton agar, average values.
The mark [6] stands for this setting: read-out: Minimum inhibitory Concentration Gn Ia, Test Medium Comparison, B: Nutrient agar, average values.

With `CC/C=C\C1=C(C(=O)[O-])N2C(=O)[C@@H](NC(=O)[C@H](N)c3ccc(O)cc3)[C@H]2SC1.[Na+]`, in test [1], the “activity against the Gram- bacteria (Gn-Ia)” value (from here on “activity … (Gn-Ia)”) is listed as “reduction of Gram- activity”. Besides, in test [1] (setting [3]), the MIC is 4.1 mg/L.

Take `CC1=C(C(=O)O)N2C(=O)[C@@H](NC(=O)[C@H](N)c3ccc(O)cc3)[C@H]2SC1` [Cefadroxil]: the MIC in test [1] (setting [3]) and in test [1] (setting [4]) was 8.3 mg/L (≈ 22.8 µM) throughout.

For `CC1=C(C(=O)O)N2C(=O)[C@@H](NC(=O)[C@H](N)c3ccccc3)[C@H]2SC1` [Cephalexin], the MIC in test [1] (setting [3]) was 6.2 mg/L (≈ 17.8 µM); in test [1] (setting [4]) it was 4.1 mg/L (≈ 11.8 µM).

For `C/C=C/C1=C(C(=O)O)N2C(=O)[C@@H](NC(=O)[C@H](N)c3ccc(O)cc3)[C@H]2SC1` [Compound 8, 7β-[D-2-Amino-2-(p-hydroxyphenyl)acetamido]-3-[(E)-1-propen-1-yl]-3-cephem-4-carboxylic Acid], the “factor by which less active against Gram- bacteria than the cis-propenyl Compound No. 9” value in test [1] came out at 8.

Consider `C=CC1=C(C(=O)O)N2C(=O)[C@@H](NC(=O)[C@H](N)c3ccc(O)cc3)[C@H]2SC1` [Compound 11], for which the “activity … (Gn-Ia)” value in test [1] is on record as “reduction of Gram- activity”. Besides, the MIC in test [1] (setting [3]) stood at 3.6 mg/L (≈ 9.59 µM).

On to `N[C@@H](C(=O)N[C@@H]1C(=O)N2C(C(=O)O)=C(/C=C\Cc3ccccc3)CS[C@H]12)c1ccc(O)cc1` [Compound 15, 7β-[D-2-Amino-2-(p-hydroxyphenyl)acetamido]-3-[(Z)-3-phenyl-1-propen-1-yl]-3-cephem-4-carboxylic acid], for which, in test [1], the “activity … (Gn-Ia)” value was “reduction of Gram- activity”. The MIC in test [1] (setting [3]) is greater than 50 mg/L.

For `COC/C=C\C1=C(C(=O)O)N2C(=O)[C@@H](NC(=O)[C@H](N)c3ccc(O)cc3)[C@H]2SC1` [Compound 17, 7β-[D-2-Amino-2-(p-hydroxyphenyl)acetamido]-3-[(Z)-3-methoxy-1-propen-1-yl]-3-cephem-4-carboxylic Acid], the “activity … (Gn-Ia)” value in test [1] is “reduction of Gram- activity”. Also, the MIC in test [1] (setting [3]) was 2.7 mg/L (≈ 6.44 µM).

In the case of `N[C@@H](C(=O)N[C@@H]1C(=O)N2C(C(=O)O)=C(C=CCSc3cnn[nH]3)CS[C@H]12)c1ccc(O)cc1` [Compound 21, 7β-[D-2-Amino-2-(p-hydroxyphenyl)acetamido]-3-[3-(1H-1,2,3-triazol-5-yl)thio-1-propen-1-yl]-3-cephem-4-carboxylic Acid], the “activity … (Gn-Ia)” value in test [1] is recorded as “reduction of Gram- activity”. Further, the MIC in test [1] (setting [3]) is 2.7 mg/L (≈ 5.53 µM).

For `C/C=C\C1=C(C(=O)O)N2C(=O)[C@@H](NC(=O)[C@H](N)c3ccccc3)[C@H]2SC1` [Compound 24, 7β-(D(-)-2-Amino-2-phenylacetamido)-3-[(Z)-1-propen-1-yl]-3-cephem-4-carboxylic acid], the “activity … (Gn-Ia)” value in test [1] is “good activity against the Gram- bacteria”. Besides, the MIC in test [1] (setting [3]) and in test [1] (setting [4]) was 0.8 mg/L (≈ 2.14 µM) in each case.

For the compound `C/C=C\C1=C(C(=O)O)N2C(=O)[C@@H](NC(=O)[C@H](N)c3ccc(O)c(Cl)c3)[C@H]2SC1` [Compound 32, 7β-[D-2-Amino-2-(3-chloro-4-hydroxyphenyl)acetamido]-3-[(Z)-1-propen-1-yl]-3-cephem-4-carboxylic acid], the “activity … (Gn-Ia)” value in test [1] is listed as “good activity against the Gram- bacteria”. Besides, the MIC in test [1] (setting [4]) is 1.1 mg/L (≈ 2.6 µM).

`C/C=C\C1=C(C(=O)O)N2C(=O)[C@@H](NC(=O)[C@H](N)c3ccc(O)c(O)c3)[C@H]2SC1` [Compound 37, 7β-[D(-)-2-Amino-2-(3,4-dihydroxyphenyl)acetamido]-3-[(Z)-1-propen-1-yl]-3-cephem-4-carboxylic Acid]: the antibacterial activity result in test [2] is given as “comparable in antibacterial effect to the other cephalosporins having the cis-propenyl group”. Also, the values for the MIC in test [1] (setting [4]), in test [1] (setting [5]) and in test [1] (setting [6]) were 6.3 mg/L (≈ 15.5 µM), 5.5 mg/L (≈ 13.6 µM) and 0.92 mg/L (≈ 2.27 µM), respectively.

On to `C/C=C\C1=C(C(=O)O)N2C(=O)[C@@H](NC(=O)[C@H](N)c3ccc(O)c(OC)c3)[C@H]2SC1` [Compound 42, 7β-[D(-)-2-Amino-2-(4-hydroxy-3-methoxyphenyl)acetamido]-3-[(Z)-1-propen-1-yl]-3-cephem-4-carboxylic Acid], for which the “activity … (Gn-Ia)” value in test [1] is “good activity against the Gram- bacteria”. In addition, the MIC turned out to be 0.53 mg/L (≈ 1.26 µM) in test [1] (read-out: Minimum Inhibitory Concentration Gn Ia, Mueller-Hinton agar, not part of run 1, tested separately, average of five organisms); 0.53 mg/L (≈ 1.26 µM) in test [1] (setting [5]); 0.4 mg/L (≈ 0.954 µM) in test [1] (setting [6]).
